Measured values: PubChem BioAssay AID894 (National Center for Advancing Translational Sciences (NCATS), 2007)
The campaign covered roughly 150,000 compounds. About 6,500 (4.3%) were called active. Inconclusive means that the source gave no clear call. Such entries were picked first, then a sample of the others. Calls come from the whole dose curve; as a rule, active = well fitted inhibition curve with a large enough effect (not every such curve was filed as active); inconclusive = small, poorly fitted or top-dose-only effect, or another doubt; inactive = no such curve, though single readings can be large or run the other way. Potencies beside an inconclusive call are fits to weak or partial responses and may not hold up.

molecular target: 15-hydroxyprostaglandin dehydrogenase [NAD(+)] (Homo sapiens) (UniProt P15428); assay: qHTS Assay for Inhibitors of HPGD (15-Hydroxyprostaglandin Dehydrogenase); conditions: purified HPGD, NADH fluorescence kinetic, PGE2 substrate; activity change, negative = inhibition: stronger effect = lower value
In short: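 NADH formation kinetics: reaction with 30 uM PGE2 and 1 mM NAD+ (final), 20 nM enzyme, Tris-HCl pH 8 with Tween 20, after 15 min compound preincubation at room temperature. Fluorescence change, last versus first of five reads.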
% is set by controls: 0 for no effect and ±100 for the full control effect; potency is the fitted concentration of half-maximal effect; tags give direction and shape of the fitted curve.

Sequence of UniProt P15428 (P15428 whole entry, looked up): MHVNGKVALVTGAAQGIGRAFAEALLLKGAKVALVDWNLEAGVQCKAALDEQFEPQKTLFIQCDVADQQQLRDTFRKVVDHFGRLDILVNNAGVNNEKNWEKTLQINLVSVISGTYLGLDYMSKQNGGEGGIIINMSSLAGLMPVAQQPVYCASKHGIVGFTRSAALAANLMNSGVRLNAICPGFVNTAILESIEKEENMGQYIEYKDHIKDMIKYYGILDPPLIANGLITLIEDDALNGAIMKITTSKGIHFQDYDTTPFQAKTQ

Activity change, negative = inhibition, inactive:
CCCCC(O)(CCN1CCOCC1)c1ccc(Cl)cc1 (stereo not drawn) -0.663%, CCCCC[C@H](O)/C=C/[C@@H]1[C@H]2C/C(=C/CCCC(=O)O)O[C@H]2C[C@H]1O -14.6%, CCOc1ccc(C(=O)NC(=S)Nc2ccc(NC(=O)CC)cc2)cc1[N+](=O)[O-] -20.1%, Cc1ccc(SCC(=O)NCCSC(C)(C)C)cc1 -22.5%, O=C(Cn1c(=O)[nH]n(-c2ccccc2)c1=O)N1CCCc2ccccc21 -5.66%, Cc1ccc(CN(c2ccc(C(=O)NCc3ccccn3)cc2)S(C)(=O)=O)cc1 -7.39%, COc1ccc(CNc2nc(NCc3ccc(OC)c(OC)c3)n(C(=O)c3cccs3)n2)cc1OC -13.1%, COc1ccc(Nc2ncccc2C(=O)NCc2ccccc2)cc1 -8.67%, Cc1cnc(NC(=O)CSc2nnc(COc3c(C)cccc3C)o2)s1 -6.73%, N#Cc1cccc(-c2cncnc2-n2ccnc2)c1 -10.1%, c1ccc(CN2CCOCC2)cc1 -4.85%, S=C(Nc1ccccc1)Nc1nc2ccccc2n1CCOc1ccc(Br)cc1 -23.6%, CCN(CC)CCCCC1CCN(CC(=O)N2c3ccccc3C(=O)Nc3cccnc32)CC1 -14.2%, Cc1cc(-c2nnc(-c3cc4ccccc4oc3=O)o2)c(C)n1-c1ccccc1 -9.64%, O=C(CN(Cc1ccco1)C(=O)CNS(=O)(=O)c1ccccc1)NCc1ccccc1 -19.3%, O=C(Nc1cccc(F)c1)C1CC(=O)N(c2ccc(Cl)cc2)C1 (stereo not drawn) -3.44%, O=c1c(-c2ccc(F)cc2)nc2cnc(Nc3ccccc3)nc2n1Cc1cccs1 -2.88%, CS(=O)(=O)N(Cc1ccc(F)cc1)Cc1nc2ccccc2c(=O)[nH]1 -0.574%, O=C(NCc1nnc2c3ccccc3c(-c3ccccc3)nn12)c1ccccc1Cl -14.7%, CCCC1CCC(=C(C#N)C(N)=O)CC1 (stereo not drawn) -7.6%, O=C(Nc1ccc(F)cc1)NC1CCN(Cc2nnnn2Cc2ccco2)CC1 1.57%, Cc1ccc(NC(=O)COC(=O)C(NS(=O)(=O)c2ccc(Cl)cc2)C(C)O)cc1 (stereo not drawn) -3.39%, O=C(NC(=S)Nc1ccc(S(=O)(=O)Nc2nccs2)cc1)c1ccc(F)cc1 -23.4%, O=C(Nc1ccc(Cl)cc1)ON=C1CCCC1 -13.1%, N#Cc1ccccc1OC[C@H](O)CNCCNC(=O)Nc1ccccc1 -3.37%

Potency, active:
O=C1c2ccccc2C(=O)N1CCCCSc1nnnn1-c1ccccc1 7.94 µM, O=C(CSc1nc2ccsc2c(=O)n1Cc1ccc(C(=O)O)cc1)NCc1ccco1 20 µM, COC(=O)C1=C(C(=O)OC)C(c2cc(Cl)ccc2O)c2sc(=O)[nH]c2S1 (stereo not drawn) 20 µM, C=CCSc1nnc(NC(=O)CSc2nc(CCC)cc(=O)[nH]2)s1 20 µM, CC(=O)C1=C(O)C(=O)N(CCC(=O)O)C1c1cccc(F)c1 (stereo not drawn) 25.1 µM, Cc1nnc(-c2ccc(Oc3ccc(C)c(C)c3)c([N+](=O)[O-])c2)o1 10 µM, Cc1cc(C2C(C#N)=C(N)SC(N)=C2C#N)c(C)s1 20 µM, Cc1cccc(N(CC(=O)N/N=C/c2ccc(OCC(=O)NCc3ccco3)cc2)S(C)(=O)=O)c1C 25.1 µM, Cc1cccc(CNc2ncnc3ccc(-c4c(C)noc4C)cc23)c1 12.6 µM, CCN(CC)CC(=O)NCc1cc(-c2ccc(OC)cc2)no1 1.26 µM, O=C1CC(N(O)C2CC(=O)N(Cc3ccccc3)C2=O)C(=O)N1Cc1ccccc1 (stereo not drawn) 31.6 µM, COc1cccc(Cn2nnc3c(=O)[nH]c(C4CCCN(C(=O)c5ccccc5Cl)C4)nc32)c1 (stereo not drawn) 14.1 µM, O=C(O)c1cnc(-c2ccccc2)nc1Sc1cccc(Cl)c1 22.4 µM, O=C(O)c1ccc(COc2ccc(CO)cc2Cl)cc1 15.8 µM

Potency, inconclusive:
CCCN=Cc1sc2ccc(OCC)cc2c1O 35.5 µM [inhibitor, single point], CCCCn1nc2cc(C(=O)NCc3ccccc3OC)ccc2c1OCC 39.8 µM [inhibitor, partial curve], CCOc1nc(N=C(N)N)nc2c(C)cccc12 31.6 µM [inhibitor, partial curve], CCOC(=O)CC1(CC(=O)OCC)NC(=O)c2c(C)sc(C(=O)OCC)c2N1 28.2 µM [inhibitor, partial curve], CCCOc1ccc(C(=O)C(c2ccccc2)N2CCOCC2)cc1 (stereo not drawn) 28.2 µM [inhibitor, partial curve], O=C(COC(=O)c1cccs1)NCC1CCCO1 (stereo not drawn) 31.6 µM [inhibitor, partial curve], Oc1ccc(O)c2c(O)cccc12 7.94 µM [inhibitor, partial curve, poor fit], COc1ccc(-c2cc(C(=O)NC(Cc3c[nH]c4ccccc34)C(=O)O)c(C)o2)cc1OC (stereo not drawn) 28.2 µM [inhibitor, partial curve], Cc1cc(C(C)(C)C)cc(S(=O)(=O)Nc2ccc(O)c(C(=O)O)c2)c1C 17.8 µM [inhibitor, partial curve], COc1ccc(S(=O)(=O)NCCSC(C)(C)C)c(Cl)c1Cl 39.8 µM [inhibitor, single point], CCCCN(CC)c1nc(N)c2c(N)nc(OCC)cc2c1C#N 31.6 µM [inhibitor, partial curve], CCN1CCN(C(=O)CSc2cc(=O)n(CC)c3ccccc23)CC1 20 µM [inhibitor, partial curve], O=C(Nc1nc2ccccc2n1CCOc1ccccc1)c1ccco1 28.2 µM [inhibitor, partial curve, poor fit], O=C(CSc1nc2ccccc2o1)NCc1ccco1 5.01 µM [inhibitor, full curve], C=CCn1c(-c2ccccc2)nc2nc3ccccc3nc21 25.1 µM [inhibitor, partial curve], COc1cccc2c3c(c(C)nc12)CC(CO)O3 (stereo not drawn) 31.6 µM [inhibitor, partial curve], COc1ccc(OC)c(C=Nc2ccccc2-c2nc3ccccc3[nH]2)c1 31.6 µM [inhibitor, partial curve], Nc1c(S(=O)(=O)O)cc(Nc2cccc(S(N)(=O)=O)c2)c2c1C(=O)c1ccccc1C2=O 3.98 µM [inhibitor, partial curve], CC(=O)N(CC(=O)Nc1nn(-c2ccccc2)nc1C(N)=O)Cc1ccccc1 31.6 µM [inhibitor, partial curve], CCCCN(CCCC)S(=O)(=O)c1ccc(NC(=O)Cc2cccs2)cc1 10 µM [inhibitor, partial curve], Cc1ccccc1N1C(=O)C(Cl)=C(N2CCCCCC2)C1=O 20 µM [inhibitor, partial curve], O=C(Nc1cccc(O)c1)c1cc2nc(-c3ccccc3)cc(-c3ccccc3)n2n1 25.1 µM [inhibitor, partial curve], COc1cccc(/C=C/C(=O)OCC(=O)Nc2ccc(S(=O)(=O)N3CCCC3)cc2)c1 31.6 µM [inhibitor, partial curve], COc1ccc(-c2cn3c(C)c(C(=O)Nc4ccncc4)sc3n2)cc1 31.6 µM [inhibitor, partial curve], Nc1ccc2c(C(F)(F)F)cc(=O)oc2c1 28.2 µM [inhibitor, partial curve], CC(=O)N=c1c(C#N)cc2c(=O)n3cccc(C)c3nc2n1CC(C)C 12.6 µM [inhibitor, partial curve], Cc1ccc(C(=O)CSc2nnc(COc3cccc4cccnc34)o2)cc1 39.8 µM [inhibitor, single point], COC(=O)[C@H]1C(OC)[C@@H](OC(=O)c2cc(OC)c(OC)c(OC)c2)C[C@@H]2CN3CCc4c([nH]c5cc(OC)ccc45)[C@H]3C[C@H]21 (stereo partly drawn) 25.1 µM [inhibitor, partial curve], COc1ccc2nc(NC(=O)CN(c3ccc(C)cc3)S(=O)(=O)c3c(C)nn(C)c3C)sc2c1 22.4 µM [inhibitor, partial curve], CC(C)C1Cc2c(sc3[nH]c(=S)n(Cc4ccccc4)c(=O)c23)CO1 (stereo not drawn) 25.1 µM [inhibitor, partial curve, poor fit], O=C1C(=C2CCCCC2)SC(=S)N1Cc1ccco1 7.94 µM [inhibitor, partial curve], O=C(CN1C(=O)c2cccc3cccc(c23)C1=O)N1CCCCCC1 22.4 µM [inhibitor, partial curve, poor fit], CCOC(=O)c1ccc(N2CCN(c3ccccc3F)CC2)c(NC(=O)Nc2cccc(OC)c2)c1 39.8 µM [inhibitor, single point], CCC(C)NC(=O)c1ccc(CSc2nc3ccncc3n2Cc2ccc(F)cc2)cc1 (stereo not drawn) 20 µM [inhibitor, partial curve, poor fit]
